Results published in article PMC2646141.
These are yes or no findings as the source states them, for the method shown. For some assays here: In cells and extracts the contact can be indirect. Some binding calls cover weakened binding; strength is not graded here.

By UniProt entry, the sequences of proteins in these tests, tags left out. Where a name states a change or a piece, a line headed by the entry shows the natural chain unless it says otherwise.
UniProt Q9HC16: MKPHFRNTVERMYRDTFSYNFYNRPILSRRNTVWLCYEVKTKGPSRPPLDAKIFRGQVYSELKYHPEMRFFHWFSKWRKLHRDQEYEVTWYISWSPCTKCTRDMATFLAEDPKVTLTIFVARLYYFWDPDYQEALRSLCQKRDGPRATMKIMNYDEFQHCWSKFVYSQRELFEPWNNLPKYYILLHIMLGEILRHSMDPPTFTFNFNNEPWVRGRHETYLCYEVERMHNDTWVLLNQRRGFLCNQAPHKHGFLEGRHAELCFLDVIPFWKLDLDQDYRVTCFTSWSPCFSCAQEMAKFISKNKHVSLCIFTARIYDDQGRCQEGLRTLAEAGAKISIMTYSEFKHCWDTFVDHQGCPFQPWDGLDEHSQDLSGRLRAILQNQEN

Columns and labels:
[1] = target: untagged A3G Y315A (human) (UniProt Q9HC16); experiment: cross-linking; cleared lysate of transfected 293T cells treated with BM(PEO)3 (cysteine-reactive, 18 Å linker), 20°C, 1 h, quenched with DTT; SDS-PAGE and immunoblot for A3G; ~80 kD species; no RNase A, or RNase A after the crosslinking
[2] = target: HA-tagged wild type A3G (human) (UniProt Q9HC16); experiment: co-IP; 293T cells co-transfected with pA3G-HA and a second A3G plasmid; cleared lysate (0.5% Triton X-100, 287 mM NaCl, pH 7.2); 3F10 anti-HA antibody and protein G- or A-agarose, 2 h at 4°C; aliquot without RNase A; immunoblot. In Figure 3A RNase A treatment substantially inhibited …
A3G W127Y (human) = A3G W127Y (human) (UniProt Q9HC16); experiment: cross-linking; cleared lysate of transfected 293T cells treated with BM(PEO)3 (cysteine-reactive, 18 Å linker), 20°C, 1 h, quenched with DTT; SDS-PAGE and immunoblot for A3G; ~80 kD species; no RNase A, or RNase A after the crosslinking
[3] = target: wild type APOBEC3G (A3G) bait (human) (UniProt Q9HC16); experiment: two-hybrid; yeast Y190; wild type A3G in the bait plasmid pGBKT7, wild type or mutant A3G in the prey plasmid pHB18; beta-galactosidase activity (chlorophenol red-beta-D-galactopyranoside), OD540, normalised to Tsg101 bait/Vps28 prey set at 4.0
A3G Y124F (human) = A3G Y124F (human) (UniProt Q9HC16); experiment: cross-linking; cleared lysate of transfected 293T cells treated with BM(PEO)3 (cysteine-reactive, 18 Å linker), 20°C, 1 h, quenched with DTT; SDS-PAGE and immunoblot for A3G; ~80 kD species; no RNase A, or RNase A after the crosslinking
[4] = target: HA-tagged wild type A3G (human) (UniProt Q9HC16); experiment: condition: only after treatment of the immunoprecipitate with RNase A; co-IP; as a2, but the bead-bound immunoprecipitate was treated with bovine pancreatic RNase A (30 min, room temperature) before the last washes
A3G R24A (human) = A3G R24A (human) (UniProt Q9HC16); experiment: cross-linking; cleared lysate of transfected 293T cells treated with BM(PEO)3 (cysteine-reactive, 18 Å linker), 20°C, 1 h, quenched with DTT; SDS-PAGE and immunoblot for A3G; ~80 kD species; no RNase A, or RNase A after the crosslinking
[5] = target: untagged A3G Y124A (human) (UniProt Q9HC16); experiment: as above
[6] = target: untagged wild type APOBEC3G (A3G) (human) (UniProt Q9HC16); experiment: condition: only RNase A treatment prior to crosslinking; cross-linking; as a4, but RNase A (10 U) added to the lysate prior to BM(PEO)3
[7] = target: untagged A3G W127A (human) (UniProt Q9HC16); experiment: cross-linking; cleared lysate of transfected 293T cells treated with BM(PEO)3 (cysteine-reactive, 18 Å linker), 20°C, 1 h, quenched with DTT; SDS-PAGE and immunoblot for A3G; ~80 kD species; no RNase A, or RNase A after the crosslinking
A3G R30A (human) = A3G R30A (human) (UniProt Q9HC16); experiment: as above
A3G R24A+R136A (human) = A3G R24A+R136A (human) (UniProt Q9HC16); experiment: as above
A3G R30A+R136A (human) = A3G R30A+R136A (human) (UniProt Q9HC16); experiment: as above

What does the source list for “untagged A3G Y315A (from UniProt Q9HC16 1-384)”?
binding [1]: binds; binding [2]: binds

For A3G W127Y (from UniProt Q9HC16 1-384), which binding (A3G W127Y (human)) is on record?
The binding was “binds”.

With “A3G Y124L prey (from UniProt Q9HC16 1-384)” as the substance, how does the binding [3] read?
The binding was “no binding”.

With A3G Y124F (from UniProt Q9HC16 1-384) as the substance, how does the binding (A3G Y124F (human)) read?
Its binding is “binds”.

Which binding [4] does the source give for “myc-tagged A3G (from UniProt Q9HC16 1-384)” here?
The binding was “no binding”.

“A3G Y315L prey (from UniProt Q9HC16 1-384)” was tested. Which binding [3] did it give?
Its binding is “binds”.

Which results are given for A3G R24A (from UniProt Q9HC16 1-384)?
binding (A3G R24A (human)): binds; binding [2]: binds

“untagged A3G Y124A (from UniProt Q9HC16 1-384)” was tested. Which binding [5] did it give?
The binding was “binds weakly”.

With “untagged wild type APOBEC3G (A3G) (from UniProt Q9HC16 1-384)” as the substance, how does the binding [6] read?
Its binding is “no binding”.

How did the binding [7] turn out when “untagged A3G W127A (from UniProt Q9HC16 1-384)” was run?
Its binding is “binds weakly”.

With A3G R30A (from UniProt Q9HC16 1-384) as the substance, how does the binding (A3G R30A (human)) read?
Its binding is “binds”.

And the binding [2]?
The binding was “binds”.

For “A3G Y315A prey (from UniProt Q9HC16 1-384)”, which binding [3] is on record?
The binding was “binds”.

With “A3G R24A+R136A (from UniProt Q9HC16 1-384)” as the substance, how does the binding (A3G R24A+R136A (human)) read?
Its binding is “binds weakly”.

And the binding [2]?
Its binding is “binds weakly”.

Which results are given for “A3G R30A+R136A (from UniProt Q9HC16 1-384)”?
binding (A3G R30A+R136A (human)): binds weakly; binding [2]: binds weakly

How did the binding [3] turn out when “A3G Y315F prey (from UniProt Q9HC16 1-384)” was run?
Its binding is “binds”.
